# In the supplement of paper PMC8728848:
# Some of the results follow.
# B1: MGL2 (Mus musculus), Q8JZN1 (protein)
# chain: MTMRYENFQNLEREEKNQEMRNGDKKGGMESPKFALIPSQSFLWRILSWTHLLLFSLGLSLLLLVVISVIGSQNSQLRRDLGTLRAILDNTTSKIKAEFQSLDSRADNFEKGISSLKVDVEDHRQELQAGRDLSQKVTSLESTLEKREQALKTDLSDLTDHVQQLETDLKALTCQLANLKNNGSEVACCPLHWTEHEGSCYWFSESEKSWPEADKYCRLENSHLVVVNSLEEQNFLQNRLANVLSWMGLTDQNGPWRWVDGTDFDKGFKNWRPLQPDNWHGHMLGGGEDCAHFSYDGRWNDDVCQRHYHWICETELGKASSAHSPQLIASVP
# How the values were obtained:
# Experiment in all cases: glycan array binding signal (z-score within array); higher = stronger binding
# Details in all cases: glycan notation: IUPAC condensed, linker removed
# [1] = biological target: Gal(b1-4)GlcNAc(b1-3)Gal(b1-4)GlcNAc(b1-3)[Gal(b1-4)GlcNAc(b1-3)Gal(b1-4)GlcNAc(b1-6)]GalNAc
# How it was run: (§1)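 The Consortium for Functional Glycomics database supplied 3228 glycan arrays, of which those lacking an available protein sequence were dropped. The binding signal, a within-array Z-score, was averaged across arrays of the same protein sequence and across linkers. Negative scores can be read as non-binding.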
# [2] = biological target: Gal(b1-4)GlcNAc(b1-3)Gal(b1-4)GlcNAc(b1-6)[Gal(b1-3)]GalNAc
# How it was run: as §1
# [3] = biological target: Gal(b1-4)GlcNAc(b1-3)Gal(b1-4)[Fuc(a1-3)]GlcNAc(b1-3)Gal(b1-4)[Fuc(a1-3)]GlcNAc
# How it was run: as §1
# [4] = biological target: Gal(b1-4)GlcNAc(b1-3)GalNAc
# How it was run: as §1
# [5] = biological target: Gal(b1-4)GlcNAc(b1-3)[Fuc(a1-3)GlcNAc(b1-6)]Gal(b1-4)Glc
# How it was run: as §1
# [6] = biological target: Gal(b1-4)GlcNAc(b1-3)[Gal(b1-4)GlcNAc(b1-6)]Gal(b1-4)GlcNAc
# How it was run: as §1
# [7] = biological target: Gal(b1-4)GlcNAc(b1-3)[GlcNAc(b1-6)]Gal(b1-4)GlcNAc
# How it was run: as §1
# [8] = biological target: Gal(b1-4)GlcNAc(b1-6)Gal(b1-4)GlcNAc
# How it was run: as §1
# [9] = biological target: Gal(b1-4)GlcNAc(b1-6)GalNAc
# How it was run: as §1
# [10] = biological target: Gal(b1-4)GlcNAc(b1-6)[Gal(b1-3)]GalNAc
# How it was run: as §1
# [11] = biological target: Gal(b1-4)GlcNAc(b1-6)[Gal(b1-4)GlcNAc(b1-3)]GalNAc
# How it was run: as §1
# [12] = biological target: Gal(b1-4)GlcNAc6P
# How it was run: as §1
# [13] = biological target: Gal(b1-6)Gal
# How it was run: as §1
# [14] = biological target: Gal3S(b1-3)GalNAc
# How it was run: as §1
# [15] = biological target: Gal3S(b1-3)GlcNAc
# How it was run: as §1
# [16] = biological target: Gal3S(b1-3)[Fuc(a1-4)]GlcNAc
# How it was run: as §1
# [17] = biological target: Gal3S(b1-4)Glc
# How it was run: as §1
# [18] = biological target: Gal3S(b1-4)Glc6S
# How it was run: as §1
# [19] = biological target: Gal3S(b1-4)GlcNAc
# How it was run: as §1
# [20] = biological target: Gal3S(b1-4)[Fuc(a1-3)]Glc6S
# How it was run: as §1
# [21] = biological target: Gal3S(b1-4)[Fuc(a1-3)]GlcNAc
# How it was run: as §1
# [22] = biological target: Gal3S(b1-4)[Fuc(a1-3)]GlcNAc6S
# How it was run: as §1
# [23] = biological target: Gal3S4S(b1-4)GlcNAc
# How it was run: as §1
# [24] = biological target: Gal3S6S(b1-4)GlcNAc
# How it was run: as §1
# [25] = biological target: Gal3S6S(b1-4)GlcNAc6S
# How it was run: as §1
# [26] = biological target: Gal4S(b1-4)GlcNAc
# How it was run: as §1
# [27] = biological target: Gal4S6S(b1-4)GlcNAc
# How it was run: as §1
# [28] = biological target: Gal6P(b1-4)GlcNAc
# How it was run: as §1
# [29] = biological target: Gal6S(b1-3)GlcNAc
# How it was run: as §1
# [30] = biological target: Gal6S(b1-3)GlcNAc6S
# How it was run: as §1
# [31] = biological target: Gal6S(b1-4)Glc
# How it was run: as §1
# [32] = biological target: Gal6S(b1-4)Glc6S
# How it was run: as §1
# [33] = biological target: Gal6S(b1-4)GlcNAc
# How it was run: as §1
# [34] = biological target: Gal6S(b1-4)GlcNAc6S
# How it was run: as §1
# [35] = biological target: GalNAc(a1-3)Gal
# How it was run: as §1
# [36] = biological target: GalNAc(a1-3)GalNAc
# How it was run: as §1
# [37] = biological target: GalNAc(a1-3)GalNAc(b1-3)Gal(a1-4)Gal(b1-4)Glc
# How it was run: as §1
binder,measurement,setting,value
B1,glycan array binding signal (z-score),[1],0.385
same,glycan array binding signal (z-score),[2],0.248
same,glycan array binding signal (z-score),[3],-0.1
same,glycan array binding signal (z-score),[4],-0.178
same,glycan array binding signal (z-score),[5],-0.109
same,glycan array binding signal (z-score),[6],-0.197
same,glycan array binding signal (z-score),[7],-0.273
same,glycan array binding signal (z-score),[8],-0.272
same,glycan array binding signal (z-score),[9],3.5
same,glycan array binding signal (z-score),[10],0.062
same,glycan array binding signal (z-score),[11],-0.133
same,glycan array binding signal (z-score),[12],-0.143
same,glycan array binding signal (z-score),[13],-0.238
same,glycan array binding signal (z-score),[14],-0.199
same,glycan array binding signal (z-score),[15],-0.197
same,glycan array binding signal (z-score),[16],-0.046
same,glycan array binding signal (z-score),[17],-0.22
same,glycan array binding signal (z-score),[18],-0.033
same,glycan array binding signal (z-score),[19],-0.175
same,glycan array binding signal (z-score),[20],-0.145
same,glycan array binding signal (z-score),[21],-0.228
same,glycan array binding signal (z-score),[22],-0.176
same,glycan array binding signal (z-score),[23],-0.184
same,glycan array binding signal (z-score),[24],-0.192
same,glycan array binding signal (z-score),[25],-0.099
same,glycan array binding signal (z-score),[26],-0.134
same,glycan array binding signal (z-score),[27],-0.093
same,glycan array binding signal (z-score),[28],-0.323
same,glycan array binding signal (z-score),[29],-0.151
same,glycan array binding signal (z-score),[30],-0.13
same,glycan array binding signal (z-score),[31],-0.238
same,glycan array binding signal (z-score),[32],-0.127
same,glycan array binding signal (z-score),[33],-0.276
same,glycan array binding signal (z-score),[34],-0.203
same,glycan array binding signal (z-score),[35],1.48
same,glycan array binding signal (z-score),[36],-0.176
same,glycan array binding signal (z-score),[37],-0.259
